# Reference: paper PMC4336329 (PLoS ONE, 2015)
# The whole screen tested about 310,000 compounds, of which about 2,200 (0.71%) showed an effect of 50% or more. Effects have a minus sign here. This is one part of the list.
# Target: human ether-à-go-go-related gene (hERG) potassium channel (human, UniProt Q12809)
# Test: primary screen, population patch clamp on CHO cells stably expressing hERG
# Chain of human ether-à-go-go-related gene (hERG) potassium channel (Q12809 whole entry, looked up): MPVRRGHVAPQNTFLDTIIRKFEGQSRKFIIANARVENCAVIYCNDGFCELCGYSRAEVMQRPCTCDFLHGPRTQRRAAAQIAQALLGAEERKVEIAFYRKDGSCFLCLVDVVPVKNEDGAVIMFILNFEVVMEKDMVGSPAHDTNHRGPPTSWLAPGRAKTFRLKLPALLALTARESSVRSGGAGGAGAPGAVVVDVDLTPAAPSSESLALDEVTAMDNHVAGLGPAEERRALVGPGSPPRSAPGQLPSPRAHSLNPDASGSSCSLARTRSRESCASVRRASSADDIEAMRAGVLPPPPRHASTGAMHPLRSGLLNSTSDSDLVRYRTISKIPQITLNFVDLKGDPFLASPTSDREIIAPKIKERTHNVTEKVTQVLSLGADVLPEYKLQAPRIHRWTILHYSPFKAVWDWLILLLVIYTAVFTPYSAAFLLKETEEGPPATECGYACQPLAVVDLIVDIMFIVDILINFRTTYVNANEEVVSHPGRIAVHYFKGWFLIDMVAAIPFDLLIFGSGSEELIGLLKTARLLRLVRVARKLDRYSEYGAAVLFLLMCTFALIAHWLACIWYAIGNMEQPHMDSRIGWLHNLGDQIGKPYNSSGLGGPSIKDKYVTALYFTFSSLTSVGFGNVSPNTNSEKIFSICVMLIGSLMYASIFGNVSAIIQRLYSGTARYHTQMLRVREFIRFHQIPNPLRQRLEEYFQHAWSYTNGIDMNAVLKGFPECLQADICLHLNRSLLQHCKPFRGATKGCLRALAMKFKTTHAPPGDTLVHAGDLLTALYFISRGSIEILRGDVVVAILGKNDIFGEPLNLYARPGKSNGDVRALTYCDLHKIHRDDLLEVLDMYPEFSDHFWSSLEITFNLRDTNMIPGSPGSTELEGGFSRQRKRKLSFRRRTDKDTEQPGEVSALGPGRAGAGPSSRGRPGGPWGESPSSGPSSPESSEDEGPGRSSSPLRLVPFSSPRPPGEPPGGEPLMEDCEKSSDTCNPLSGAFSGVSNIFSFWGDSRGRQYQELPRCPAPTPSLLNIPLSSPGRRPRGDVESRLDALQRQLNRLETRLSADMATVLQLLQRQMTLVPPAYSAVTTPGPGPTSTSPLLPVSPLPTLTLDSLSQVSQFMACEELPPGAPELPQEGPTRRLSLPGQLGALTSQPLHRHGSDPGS
row,Structure (SMILES),"hERG current change (%, negative = inhibition) at 1uM"
1,COC(=O)c1nc(Cl)c(Cl)c(N)c1Cl,6.62%
2,CCCCCCC1CC(CSc2ncn[nH]2)OC1=O (centres unmarked),-1.78%
3,CCN1C(Nc2ccccc2)=NC[C@@H]1CC(C)C,10.1%
4,COC(=O)CSc1nnc(CNc2ccc(OC)cc2)n1C,11.5%
5,COc1ccc2cc(CN(CCCN3CCOCC3)Cc3nnnn3C3CCCCC3)c(=O)[nH]c2c1,-0.0035%
6,CCc1ccc(/C=C2/SC(=S)N(CCC(=O)NCCCN3CCOCC3)C2=O)cc1,-9.04%
7,Cc1cc(=O)oc(C)c1C(=O)Nc1ccc2ncccc2c1,0.128%
8,O=C(NC1CCCCCC1)c1cc2n(n1)C(C(F)(F)F)CC(c1ccco1)N2 (centres unmarked),12.3%
9,COc1ccc(-c2[nH]ncc2CN(C)C(C)c2ccon2)c(OC)c1 (centres unmarked),12.9%
10,COc1ccccc1OCC(O)Cn1c(=N)n(Cc2ccccc2)c2ccccc21.Cl (centres unmarked),-39.6%
11,Cc1nc2sc(C(c3ccc(Cl)cc3)N3CCN(C(=O)c4ccco4)CC3)c(O)n2n1 (centres unmarked),-19%
12,COC(=O)C1=C(C(=O)OC)[C@@H]2N(C)c3ccccc3[C@@]23C[C@@H](CO)N(C(=O)NCCBr)C3=N1,5.14%
13,Cc1[nH]c2ccc(C(=O)N3CCN(Cc4ccccc4)CC3)cc2c1C,0.829%
14,CCOc1ccc(Br)cc1S(=O)(=O)Nc1cccc(S(=O)(=O)N(CC)CC)c1,9.48%
15,COc1ccc(CCCc2nc3ccccc3[nH]2)cc1,3.86%
16,CC(=O)C1=C(C)NC(=O)NC1c1cccc(O)c1 (centres unmarked),9.2%
17,CCCc1nc(C)c(-c2ccc(OC)c(OC)c2)c(=O)[nH]1,3.9%
18,Cc1[nH]c2ccccc2c1C(=O)CN1CCC2(CC1)OCCO2,-2.64%
19,C(=N\n1cnnc1SCc1ccccc1)/c1ccco1,4.88%
20,COc1ccc(OC)c(C(=O)NC(CC(N)=O)c2ccc(NC(C)C)c([N+](=O)[O-])c2)c1 (centres unmarked),-23.4%
21,Cc1ccc(-n2c(O)c(/C=N/Nc3ccccc3)c(=O)[nH]c2=O)cc1C,9.94%
22,CCOC(=O)C1=C(C)OC(N)=C(C#N)C1c1cc(C)sc1C (centres unmarked),-13.1%

row,Structure (SMILES),"hERG current change (%, negative = inhibition) at 1uM"
1,Cc1c(=O)n(OCc2ccccn2)c2ccccc2[n+]1[O-],17.4%
2,Cc1ccc(NC(=O)c2cccc(NC(=O)CCC(=O)O)c2)cc1C,18.6%
3,CC(C)(Oc1ccc(Cl)cc1)C(=O)O,13.9%
4,Cc1ccc(NC(=O)Cn2nnc3ccccc32)cc1,14.4%
5,CC(=O)NS(=O)(=O)c1ccccc1,11.4%
6,COc1ccc2c(CC(=O)OCC(=O)Nc3ccc4c(c3)OCO4)coc2c1,-2.17%
7,COc1cccc(CN2CCNC(=O)C2CC(=O)NCc2cc(C(C)C)no2)c1 (centres unmarked),15.4%
8,CCOc1ccc(C(=O)/C=C/c2ccc(OC)c(OC)c2)cc1,8.99%
9,Cn1cccc1Cc1nnc(SCC(=O)Nc2ccc3c(c2)OCO3)n1-c1ccc(F)cc1,8%
10,CC(=O)c1ccc(NC(=O)CCC(=O)N2CC(C)Oc3ccc(C)cc32)cc1 (centres unmarked),4.65%
11,CC(=O)N1CC(=O)N(c2ccccc2)C1=O,15%
12,CCCCC(C(=O)NC1CCCC1)N(Cc1ccco1)C(=O)Cn1nnc(-c2ccc(F)cc2)n1 (centres unmarked),-1.41%
13,CCOC(=O)c1ccc2c(c1)sc(=NC(=O)c1ccco1)n2CCOC,6.89%
14,CCOC(=O)c1ccccc1NC(=O)c1cccc2c1C(=O)N(C1CCN(C(=O)OCC)CC1)C2,-14.5%
15,CCN(CC)S(=O)(=O)c1ccc(OCC(=O)NCc2ccco2)cc1,3.18%
16,O=S1(=O)N=C(Nc2ccc(O)cc2)c2ccccc21,9.36%
17,CC(Sc1nnc(COc2ccccc2)n1Cc1ccccc1)C(=O)O (centres unmarked),6.38%
18,CCC(C)NC(=O)CN1C(=O)C(CC)Sc2ccccc21 (centres unmarked),1.41%
19,Cc1ccc([N+](=O)[O-])cc1NC(=S)NC(=O)C(C)(C)C,1.28%
20,Cc1ccccc1CCN(C(=O)c1csnn1)C(C(=O)NC1CCCC1)c1ccncc1 (centres unmarked),-5.39%
21,NS(=O)(=O)c1ccc(CCNC(=O)c2ccc([N+](=O)[O-])cc2[N+](=O)[O-])cc1,5.72%
22,CC(C)c1nc2oc3c(NCc4cccnc4)ncnc3c2c2c1CCC2,-6.78%

row,Structure (SMILES),"hERG current change (%, negative = inhibition) at 1uM"
1,CCC(C)[C@H](NC(=O)[C@@H]1Cc2ccccc2CN1C(=O)OC(C)(C)C)C(=O)NCC1CCC(C(=O)O)CC1 (some centres unmarked),12.4%
2,COCC(C)NC(=O)c1cc(S(=O)(=O)N2CCCCC2)ccc1N1CCOCC1 (centres unmarked),10.1%
3,CC(=O)Nc1cccc(C(=O)N/N=C/c2c[nH]c3ccccc23)c1,7.14%
4,COc1ccc(/C=C2\Oc3cc(OCC(=O)N4CCC[C@H]4C(=O)O)ccc3C2=O)c(OC)c1,7.09%
5,COc1ccc(-c2noc(CNS(=O)(=O)c3ccc(NC(C)=O)cc3)n2)cc1,11.1%
6,O=C(NC(=S)Nc1ccc(F)cc1)C1CCCCC1,6.46%
7,CC(=O)ON1C(C)(C)Cc2noc(N)c2C1(C)C,10.2%
8,O=[N+]([O-])c1cnc2nc(-c3ccncc3)nn2c1[O-].[Na+],19.8%
9,Cc1c(NC(=O)c2cc(-c3ccc(Cl)s3)nc3ccccc23)c(=O)n(-c2ccccc2)n1C,10%
10,COc1ccc(COCCN2CCN(S(=O)(=O)c3ccc(C)cc3)CCC2=O)cc1,-0.783%
11,Cn1c(CCNC(=O)c2ccco2)nc2cc(NC(=O)C3CCCCC3)ccc21,-7.41%
12,Cn1cc(-c2ccccc2C(N)=O)c(=O)c2ccccc21,7.35%
13,CN1C(=O)[C@H]2[C@@H](/C=C/c3ccccc3)N3C(=O)CN(Cc4ccccn4)C(=O)[C@@]3(C)[C@H]2C1=O,11.8%
14,O=C(O)c1ccc(-c2nnc(-c3ccccc3)o2)cc1,15.5%
15,CC(C)N1CCC(N2CCN(Cc3ccc(Oc4ncccn4)cc3)CC2CCO)CC1 (centres unmarked),14%
16,COc1ccc(Cc2nnc(Nc3ccc(Cl)cc3)[nH]c2=O)cc1,9.71%
17,Cc1ccc[n+](CC(=O)Nc2cc(C(F)(F)F)ccc2N2CCOCC2)c1.[Cl-],10.9%
18,CNC(=O)CN(C1CCCCC1)S(=O)(=O)c1ccc(OC)c(Cl)c1,13.1%
19,CC(C)(C)C1CCc2onc(C(=O)Nc3ccc(F)cc3F)c2C1 (centres unmarked),1.2%
20,Cc1c(Br)c([N+](=O)[O-])nn1C(C)C(=O)Nc1nccs1 (centres unmarked),12.3%
21,O=C(NN1C(=O)c2ccccc2NC1c1ccc([N+](=O)[O-])o1)c1ccccc1 (centres unmarked),3.92%
22,COc1ccc(NC(=O)CSc2nc3c(c(=O)n2-c2ccccc2)SCC3)c(OC)c1,-1.33%

row,Structure (SMILES),"hERG current change (%, negative = inhibition) at 1uM"
1,CC(C)n1c(SCC(=O)Nc2ccc(F)cc2)nnc1C1CC1,-2.72%
2,CCS(=O)(=O)Nc1ccc(-c2nnc(SCC(=O)c3cccc(OC)c3)o2)cc1,12.7%
3,Cc1cccc(NC(=O)c2ccc([N+](=O)[O-])s2)c1C,4.41%
4,CCn1cc(CNC(=O)c2ccc(Cl)c([N+](=O)[O-])c2)c(C)n1,10%
5,CC(C)c1cccc(C(C)C)c1NC(=O)CCN1C(=O)NC2(CCCC2)C1=O,13%
6,Nc1ccccc1-n1c(=O)n(Cc2ccccc2F)c(=O)c2[nH]cnc21,7.56%
7,Cc1cccc([C@H](NC(=O)OC(C)(C)C)C(=O)OC(C)(C)C)c1,8.63%
8,O=C(NCC(=O)N1CCN(Cc2ccccc2)CC1)c1ccc(Br)cc1,-9.27%
9,O=C(Nc1ccc(-n2cnnn2)cc1)C1CCCN1C(=O)NC1CCCCC1 (centres unmarked),-36.5%
10,CCOC(=O)C1=C(CCl)NC(=O)NC1c1ccc2c(c1)OCO2 (centres unmarked),7.24%
11,C=CCn1c(O)c(/C=C/C=Nc2ccccc2)c(=O)[nH]c1=O,22%
12,COc1ccc(N2CC(C(=O)Nc3nnc(SCC(=O)c4ccccc4)s3)CC2=O)cc1 (centres unmarked),18.5%
13,C#CCOCCOCCOCCNc1nc(N2CCOCC2)nc(N2CCN(C(=O)[C@H]([C@@H](C)CC)n3cc([C@@H](N)CO)nn3)CC2)n1.Cl,3.38%
14,Cc1ccc(NC(=O)CSc2ncc(S(=O)(=O)c3ccccc3)c(=O)[nH]2)cc1C,7.39%
15,C/C(=N\NC(=O)C1(C)CC1(Br)Br)c1cccc(NC(=O)C(C)(C)C)c1 (centres unmarked),4.12%
16,CCN(CC)c1nc(-c2ccccn2)nc(-c2ccccc2)c1C#N,3.11%
17,CCOC(=O)c1c(C)sc2c1N(C(=O)CN1CCOCC1)c1cc(Cl)ccc1S2,1.5%
18,O=C(Cn1c(=O)c2cccn2c2ccccc21)NCCc1ccccc1,10.9%
19,COc1ccc(C2=NOC(C(=O)NCc3cccnc3)C2)cc1OC (centres unmarked),14.2%
20,COc1cc2ccc3c(CCN(C)C)cc(OC)c(OC)c3c2cc1OC.Cl,11.7%
